# Assay results as given in a collection of fitness landscapes (doi:10.1126/science.1257360).
# This is one part of the list.
# B1: PhoQ; a variant is named by its letters at X, in order, P23837 (parent)
# chain: MKKLLRLFFPLSLRVRFLLATAAVVLVLSLAYGMVALIGYSVSFDKTTFRLLRGESNLFYTLAKWENNKLHVELPENIDKQSPTMTLIYDENGQLLWAQRDVPWLMKMIQPDWLKSNGFHEIEADVNDTSLLLSGDHSIQQQLQEVREDDDDAEMTHSVAVNVYPATSRMPKLTIVVVDTIPVELKSSYMVWSWFIYVLSANLLLVIPLLWVAAWWSLRPIEALAKEVRELEEHNRELLNPATTRELTSLVRNLNRLLKSERERYDKYRTTLTDLTHSLKTPLXXLQXXLRSLRSEKMSVSDAEPVMLEQISRISQQIGYYLHRASMRGGTLLSRELHPVAPLLDNLTSALNKVYQRKGVNISLDISPEISFVGEQNDFVEVMGNVLDNACKYCLEFVEISARQTDEHLYIVVEDDGPGIPLSKREVIFDRGQRVDTLRPGQGVGLAVAREITEQYEGKIVAGESMLGGARMEVIFGRQHSAPKDE
# Variants of: B1
# Assay: enrichment ratio after two sorts for PhoP signalling (ratio (wild type AVST 3.29)); higher = more functional
# Settings: with PhoP (E. coli)
row,Variant,enrichment ratio
1,LTTF,≤ 0.25
2,KNSP,≤ 0.25
3,LPQL,≤ 0.25
4,VLQY,≤ 0.25
5,KKHL,≤ 0.25
6,VHKA,≤ 0.25
7,IWFP,≤ 0.25
8,SLQK,≤ 0.25
9,KVTY,≤ 0.25
10,TALY,6.91
11,FANR,≤ 0.25
12,ADPP,≤ 0.25
13,IGAC,≤ 0.25
14,QDCV,≤ 0.25
15,YCMS,≤ 0.25
16,NGIC,≤ 0.25
17,ASFP,≤ 0.25
18,DCYW,≤ 0.25
19,MEYR,≤ 0.25
20,VNWS,≤ 0.25
21,WWYP,≤ 0.25
22,VQQM,≤ 0.25
23,GPDW,≤ 0.25
24,PWVK,≤ 0.25
25,PFYE,≤ 0.25
26,YTYN,≤ 0.25

row,Variant,enrichment ratio
1,SAWI,≤ 0.25
2,FSGH,≤ 0.25
3,YYGQ,≤ 0.25
4,SQVT,5.85
5,FMGM,≤ 0.25
6,DYFL,≤ 0.25
7,STND,≤ 0.25
8,SLLP,≤ 0.25
9,VYNR,≤ 0.25
10,TVYI,0.878
11,STRR,≤ 0.25
12,RHYH,≤ 0.25
13,IWYH,≤ 0.25
14,HWPG,5.95
15,RESD,≤ 0.25
16,LQKV,≤ 0.25
17,TKDG,≤ 0.25
18,AHAH,≤ 0.25
19,DCKG,≤ 0.25
20,VDFH,≤ 0.25
21,PTRR,≤ 0.25
22,TGTM,15
23,TFGK,≤ 0.25
24,WERA,≤ 0.25
25,QPVK,≤ 0.25
26,AFYS,≤ 0.25

row,Variant,enrichment ratio
1,IGLK,≤ 0.25
2,MPDP,≤ 0.25
3,GERL,≤ 0.25
4,RVYI,≤ 0.25
5,TNMT,7.25
6,GPRL,≤ 0.25
7,ALNF,0.952
8,WIFL,≤ 0.25
9,SLLM,6.84
10,MWFE,≤ 0.25
11,VEIR,≤ 0.25
12,DQQV,≤ 0.25
13,MLFR,≤ 0.25
14,YQIT,≤ 0.25
15,SLWE,≤ 0.25
16,VFCW,≤ 0.25
17,NSMM,1.7
18,ATTR,≤ 0.25
19,HEHV,≤ 0.25
20,RQMV,≤ 0.25
21,DEMG,≤ 0.25
22,LWSW,≤ 0.25
23,KSPK,≤ 0.25
24,EQGG,≤ 0.25
25,WCHI,≤ 0.25
26,WLAK,≤ 0.25

row,Variant,enrichment ratio
1,LDER,≤ 0.25
2,QDYN,≤ 0.25
3,PYFE,≤ 0.25
4,WNFI,≤ 0.25
5,VSNR,≤ 0.25
6,EGRV,≤ 0.25
7,PPQH,≤ 0.25
8,WDCP,≤ 0.25
9,ISLV,5.81
10,QKMF,≤ 0.25
11,DMRN,≤ 0.25
12,LQLN,0.282
13,TKGQ,≤ 0.25
14,AEHH,≤ 0.25
15,FSHC,≤ 0.25
16,LQYM,≤ 0.25
17,IKML,≤ 0.25
18,INVS,≤ 0.25
19,TVGR,9.19
20,GVRG,≤ 0.25
21,NFAT,≤ 0.25
22,PIFM,≤ 0.25
23,ARNT,≤ 0.25
24,FNFE,≤ 0.25
25,QRDD,≤ 0.25
26,FGNI,≤ 0.25

row,Variant,enrichment ratio
1,DYWS,≤ 0.25
2,LGPG,≤ 0.25
3,NSAE,≤ 0.25
4,QANT,≤ 0.25
5,QWFW,≤ 0.25
6,EAGP,≤ 0.25
7,LLRK,≤ 0.25
8,FWDS,≤ 0.25
9,VWHI,≤ 0.25
10,TPVA,≤ 0.25
11,WAAG,≤ 0.25
12,PSTN,≤ 0.25
13,ECIH,≤ 0.25
14,RKEL,≤ 0.25
15,FWMA,≤ 0.25
16,EYRC,≤ 0.25
17,TTHE,11.2
18,NKGE,≤ 0.25
19,WPEE,≤ 0.25
20,HTCY,≤ 0.25
21,YTGK,≤ 0.25
22,QPTE,≤ 0.25
23,LLFM,≤ 0.25
24,GPGY,≤ 0.25
25,GVPC,≤ 0.25
26,SLMK,0.313

row,Variant,enrichment ratio
1,TPMF,≤ 0.25
2,KIIN,≤ 0.25
3,EPNI,≤ 0.25
4,DQVH,≤ 0.25
5,WLVM,≤ 0.25
6,VNFS,≤ 0.25
7,HTKG,≤ 0.25
8,IVCW,≤ 0.25
9,SATC,5.33
10,NKFF,≤ 0.25
11,PIIF,≤ 0.25
12,GKRP,≤ 0.25
13,HQTN,≤ 0.25
14,FPHA,≤ 0.25
15,GEKD,≤ 0.25
16,KRNQ,≤ 0.25
17,LHWT,≤ 0.25
18,TGYQ,15.9
19,DQSN,≤ 0.25
20,WAMI,≤ 0.25
21,CGQL,14.3
22,QILQ,≤ 0.25
23,IIKG,≤ 0.25
